Experimental data taken from the RNAGym collection of RNA variant scans (doi:10.1093/nar/gkz1192).
Read counts are not given, so values of variants with three or more changes are uncertain.

B1: CPEB3 Ribozyme (parent)
chain: UAACAGGGGGCCACAGCAGAAGCGUUCACGUCGCAGCCCCUGUCAGAUUCUGGUGAAUCUGCGAAUUCUGCUGUAUAUCUC

Variants of: B1
Experiment: self-cleavage, relative activity (ratio to wild type); higher = more cleavage; in vitro, sequencing
Summary of the method: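 Libraries of CPEB3 self-cleaving ribozyme mutants came from rounds of error-prone PCR and carried barcodes, which DNA sequencing matched to variants. In vitro transcription used T7 RNA polymerase at 37°C for 5 hours, with a further 15 min in DNase I before EDTA stopped the reaction; the ribozymes cleaved during both steps. The RNA was reverse transcribed with template switching and sequenced on Illumina. Relative activity is the cleaved/total read fraction of a variant divided by that of the unmutated ribozyme, averaged over three batches with at least 5 reads.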

Variant	self-cleavage
A20U U58C A65G A77U	0.16
A20U U58C A75G	0.17
A20U U58C U72C	0.2
A20U U60A U67C	0.12
A20U U60C A64G U72A	0.1
A20U U60C C68G	0.23
A20U U60C C79U	0.12
A20U U60C G70C	0.13
A20U U60C U69C	0.11
A20U U67A U69G	0.52
A20U U67C U78A	0.15
A20U U69A U72G A75U U80C	0.1
A20U U69C G70C	0.07
A20U U69C U80A	0.29
A20U U76C U78A	0.53
A21C A28G G30U A64G	0.05
A21C A28U A47C U60C U74G	0.06
A21C A28U A57U	0.05
A21C A35G U41C U60A	0.28
A21C A35G U54A U78C	0.43
A21C A35U G53U	0.13
A21C A57G G73A	0.27
A21C A57G U58A	0.34
A21C A57G U60C U72A	0.19

Variant	self-cleavage
A21C A57U U69C	0.32
A21C A64G A65G U69C A77G	0.05
A21C A64U U78C	0.07
A21C C23U U25C A56U U58C U67C	0.05
A21C C32U C38U U43C A56G	0.06
A21C C40U A65G U74A	0.09
A21C G24A A28G U51G G55U	0.04
A21C G30A U41C	0.23
A21C G33A U41C G53U U58C	0.1
A21C U25A U49C A64G	0.05
A21C U25C U51C	0.25
A21C U25G U31A A45G U72C	0.23
A21C U26A G33A G36U U41C	0.06
A21C U26A G36U U41C U76C	0.05
A21C U26C A45U U69C U72C A77U U78C	0.05
A21C U26C G42A	0.06
A21C U26C U43C	0.37
A21C U31A U76C	0.25
A21C U31C A64G	0.07
A21C U31C U48C U51C A64G U69C U72C	0.08
A21C U31C U58C	0.21
A21C U48A C50A	0.08
A21C U48C C71U	0.11
A21C U51A U58C	0.15

Variant	self-cleavage
A21C U51G A75G	0.07
A21C U54A A64U U72C	0.45
A21C U60C U78C	0.08
A21G A28C A47G C62U	0.12
A21G A28C A56G U69C C71U	0.08
A21G A28C C39G A57G C79G	0.33
A21G A28C C62U U78C	0.07
A21G A28C G30A U60A	0.18
A21G A28C U49C U72C	0.11
A21G A28G A35G	0.7
A21G A28G A35G A56G	0.64
A21G A28G A35G G36A U41G	0.06
A21G A28G A35G U48C U58G	0.47
A21G A28G A35U U43C U67C	0.1
A21G A28G A45C U60C C62U U69C	0.06
A21G A28G A45G U51C U54A	0.15
A21G A28G A56G U67A A75U	0.08
A21G A28G C40A U51A U54G U67A U72A	0.05
A21G A28G G33C U43C U49C C68A U78A	0.03
A21G A28G G42U U54C A56U U58C A64U	0.05
A21G A28G G55U U72C	0.18
A21G A28G U31A A35U U60A	0.2
A21G A28G U31A U60G U80A	0.03
A21G A28G U31C U78C	0.07

Variant	self-cleavage
A21G A28G U41A A56U U76G A77U	0.24
A21G A28G U41A U48C	0.08
A21G A28G U41A U54A G63U	0.27
A21G A28G U41A U69C U72C U78G	0.06
A21G A28G U41C U80A	0.25
A21G A28G U41C U80G C81U	0.33
A21G A28G U41G U67A	0.29
A21G A28G U43C	0.26
A21G A28G U43C G52A A65G A77G	0.05
A21G A28G U48C A56G	0.21
A21G A28G U48C A77U	0.56
A21G A28G U51C U58C U78C	0.24
A21G A28G U58C U80A	0.45
A21G A28G U60C A77U	0.28
A21G A28G U67C U74C	0.13
A21G A28U A35G	1.04
A21G A28U A35G U49A	1.01
A21G A28U C37U	0.34
A21G A28U C39A A45U A56G	0.13
A21G A28U G30A A35G U41C U74A	0.16
A21G A28U U31C U41C U51C A57G U67C	0.15
A21G A28U U31C U41C U78C	0.11
A21G A28U U78C C79U	0.25
A21G A28U U80C	0.55

Variant	self-cleavage
A21G A35C A56G	0.03
A21G A35C C44A	0.23
A21G A35G A45G U74A U80C	1.2
A21G A35G A56G U60C U78C	0.24
A21G A35G A57G U60C U80C	0.38
A21G A35G C68U	0.95
A21G A35G G36A G52C A56G	0.65
A21G A35G G52A	1.13
A21G A35G G55C	0.84
A21G A35G G61A U69C U72A U78C	0.5
A21G A35G G63A A77G	1.17
A21G A35G U41A A57G	0.29
A21G A35G U41A U51C A57G	0.18
A21G A35G U41C	1.26
A21G A35G U43C A45G	0.57
A21G A35G U43C A45U A56G G63U U80C	0.28
A21G A35G U48C C71G U74C	0.12
A21G A35G U51A	1.32
A21G A35G U51G U69C	0.51
A21G A35G U54A A64G	1.15
A21G A35G U60A	0.68
A21G A35G U60C U72C	0.54
A21G A35G U67A	0.92
A21G A35G U67A U72A	0.39

Variant	self-cleavage
A21G A35G U78C	1.12
A21G A35G U80C	1.24
A21G A35U A45G U51C U69A	0.09
A21G A35U A64U	0.08
A21G A35U C38A U72C	0.28
A21G A35U C40A C68A U78G	0.04
A21G A35U U41A	0.25
A21G A35U U41C U43C A45U	0.19
A21G A35U U43C A45G G52A C62G	0.27
A21G A35U U49A U51A A77U	0.06
A21G A35U U51G	0.24
A21G A35U U54A A56U U76C	0.12
A21G A35U U60A U76C	0.07
A21G A35U U69C	0.92
A21G A35U U80C	0.34
A21G A45C A47G A56U G63A U72C	0.05
A21G A45C G53C	0.1
A21G A45C G61C	0.12
A21G A45C G63C A64C	0.16
A21G A45C U60A U69C	0.12
A21G A45G A47G U60C U72C	0.46
A21G A45G G61A U76C	0.44
A21G A45G U48C	0.29
A21G A45G U48C G52U A56G A57G U58C	0.07

Variant	self-cleavage
A21G A45G U49C A75G	0.16
A21G A45G U49C U67A	0.24
A21G A45G U60C U76A	0.41
A21G A45G U67A	0.19
A21G A45G U69C	0.41
A21G A45G U72C	0.61
A21G A45G U72C U78C	0.74
A21G A45G U72G	0.06
A21G A45G U76C	0.17
A21G A45U A47G U49C	0.1
A21G A45U A56U U69C	0.08
A21G A45U A75G	0.15
A21G A45U C50A U80C	0.15
A21G A45U U49A	0.17
A21G A45U U49C U54C U60A	0
A21G A45U U49G A64G	0.61
A21G A45U U51A U78C	0.12
A21G A45U U54G	0.22
A21G A45U U58C A65G	0.05
A21G A45U U76A	0.51
A21G A45U U80C	0.52
A21G A47G A56C A57U	0.06
A21G A47G A56U A57C C62U	0.08
